Results on one substance are retold here after patent US10364280B2, “Polypeptide” (AFFIBODY AB, priority 2015, dated 2019).

The nature of series [1]: Circular dichroism (CD) spectroscopy with variable temperature measurement. It is filed as physicochemical. As to conditions: CD at 221 nm, VTM; Z15171-Cys in HEPES/EDTA pH 7.2, 20 to 90° C.; His-tagged Z13178, Z13398 in PBS, to 80° C. How it is done: The Z variant Z15171-Cys (SEQ ID NO:5), was diluted to 0.5 mg/ml in 20 mM HEPES, 1 mM EDTA, pH 7.2. A CD spectrum at 250-195 nm was obtained at 20° C. In addition, a variable temperature measurement (VTM) was performed to determine the melting temperature (Tm). In the VTM, the absorbance was measured at 221 nm while the temperature was raised from 20 to 90° C., with a temperature slope of 5° C./min. A new CD spectrum was obtained at 20° C. after the heating procedure in order to study the refolding ability of the Z variants. The CD measurements were performed on a Jasco J-810 spectropolarimeter (Jasco Scandinavia AB) using a cell with an optical path length of 1 mm. The His-tagged Z variants Z13178 (SEQ ID NO:2) and Z13398 (SEQ ID NO:4) were analyzed by CD spectroscopy as described above, but with the exceptions that PBS was used as analysis buffer and the temperature was raised to 80° C. in the VTM.
(In general: CD spectra are sensitive to the conformation of chiral molecules.)

In the next series the target is T1, RhPD-L1 (Macaca mulatta, UniProt H9Z833).
T1 construct: purchased Sino Biological Inc. 90251-C02H
Briefly: Biacore kinetic analysis on immobilized RhPD-L1. It counts as binding, rhesus monkey. The note with it: His6-tagged Z variants. How it is done:
(§1) Kinetic constants (ka and kd) and affinities (KD) for hPD-L1 were determined for the His6-tagged Z variants Z13166 (SEQ ID NO:1), Z13178 (SEQ ID NO:2), Z13359 (SEQ ID NO:3) and Z13398 (SEQ ID NO:4) using a Biacore 2000 instrument (GE Healthcare). All four Z variants were also tested for binding against the sequence-related proteins hPD-L2, hB7-H3, hB7-H4. Z13166 and Z13398 were further analyzed against mPD-L1 (mouse PD-L1 Fc Chimera, R&D Systems, cat. no. 1019-B7) and Z13178 and Z13359 were analyzed against rhesus monkey PD-L1 (RhPD-L1; rhesus PD-L1/Fc Chimera, Sino Biological Inc., cat. no. 90251-C02H)
(§2) hPD-L1, hPD-L2, hB7-H3, hB7-H4, mPD-L1 and RhPD-L1 were immobilized in separate flow cells on the carboxylated dextran layer of different CM5 chip surfaces (GE Healthcare, cat. no. BR100012). The immobilization was performed using amine coupling chemistry according to the manufacturers protocol and using HBS-EP (0.01 M HEPES pH 7.4, 0.15 M NaCl, 3 mM EDTA, 0.005% v/v Surfactant P20, GE Healthcare, cat. no. BR100188) as running buffer. In a first set of experiments, in which Z13166 and Z13398 were analyzed, the ligand immobilization levels on the surfaces were 468-894 RU for hPD-L1, 482 RU for mPD-L1, 537-742 RU for hPD-L2, 383 RU for hB7-H3, and 538-659 RU for hB7-H4. One flow cell surface on each chip was activated and deactivated for use as blank during analyte injections. In the kinetic experiment, HBS-EP was used as running buffer and the flow rate was 50 μl/min. The analytes, i.e. the Z variants, were each diluted in HBS-EP buffer within a concentration range of 1000 to 0.01 nM and injected for 5 min, followed by dissociation in running buffer for 15-25 min. After dissociation, the surfaces were regenerated with one or two injections of 0.1% SDS. Kinetic constants were calculated from the sensorgrams using the Langmuir 1:1 model of BiaEvaluation software 4.1 (GE Healthcare). In a second set of experiments, in which Z13178 and Z13359 were analyzed, the ligand immobilization levels on the surfaces were 1030 RU for hPD-L1, 1060 RU for RhPD-L1, 1070 RU for hPD-L2, 1090 RU for hB7-H3, and 770 RU for hB7-H4. Analyses were performed essentially as described above for the first set of experiments, but using a flow rate of 30 μl/min and the Z variants were injected at concentrations of 5 and 50 nM over chips immobilized with hPD-L1 and RhPD-L1, and at a concentration of 500 nM over immobilized hPD-L2, hB7-H3 and hB7-H4,
(In general: In SPR one partner is held on a chip, and binding of the other changes the refractive index at the surface.)

The target of another series is T2, hPD-L1 (Homo sapiens, UniProt Q9NZQ7).
T2 construct: purchased R&D Systems 156-B7-100
Briefly: Biacore kinetic analysis on immobilized hPD-L1. As to conditions: His6-tagged Z variants; approximate, based on 5 and 50 nM injected; 1:1 interaction model. It counts as binding. On the procedure:
as §1, §2

A further series has as its target T3, hPD-L1 binding to hPD-1 (Homo sapiens, UniProt Q9NZQ7).
T3 construct: purchased R&D Systems 156-B7-100 (hPD-L1); 1086-PD-050 (hPD-1)
Nature of the series: AlphaLISA blocking assay. As to conditions: His6-tagged Z variants; 10 nM (Z13166, Z13398) or 8 nM (Z13178, Z13359) biotinylated hPD-L1; hPD-1 coated Acceptor beads; read-out: IC50 (M) inhibiting binding of PD-L1 to PD-1. On the procedure: The potential of Z variants to inhibit binding of PD-L1 to PD-1 was analyzed by AlphaLISA and recordings in an EnSpire multiplate reader 2300 (Perkin Elmer). hPD-1 (human PD-1 Fc-chimera; R&D Systems, cat. no. 1086-PD-050) was immobilized on AlphaLISA Acceptor beads (Perkin Elmer, cat. no. 6772002) according to the manufacturers recommendations. Stepwise serial dilutions 1:3 of the His-tagged Z variants Z13166 (SEQ ID NO:1) and Z13398 (SEQ ID NO:4) to final concentrations of 250 nM to 12 μM were made in a 384 plate (Perkin Elmer, cat. no. G6005350) and incubated for 1 h with 10 nM biotinylated hPD-L1 in AlphaLISA buffer (Perkin Elmer, cat. no. AL000F). hPD-1-coated Acceptor beads were added to a final concentration of 10 μg/ml and incubated for 1 h. Finally, streptavidin coated Donor beads (Perkin Elmer, cat. no. 6772002) were added to a final concentration of 40 μg/ml and incubated for 30 min. All incubations were performed at RT in the dark. The plate was analyzed in the EnSpire instrument and the IC50 values were calculated using GraphPad Prism 5. AlphaLISA analysis of the Z variants Z13178 (SEQ ID NO:2) and Z13359 (SEQ ID NO:3) was performed essentially as described above but with the following exceptions: Exception 1: stepwise serial dilutions 1:3 of Z variants to final concentrations of 250 nM to 4 μM were made in a 384SW plate (Perkin Elmer, cat. no. 6008350) and incubated for 45 min with 8 nM biotinylated hPD-L1 (R&D Systems) in AlphaLISA buffer (Perkin Elmer, cat. no. AL000F); and Exception 2: hPD-1-coated Acceptor beads were added to a final concentration of 10 μg/ml and incubated for 50 min.
Background: Bead proximity is the source of the signal in Alpha formats.

Where [2] appears, read: approximate, based on one concentration, 5 nM.

T2 sequence (Q9NZQ7 19-239 limits assumed): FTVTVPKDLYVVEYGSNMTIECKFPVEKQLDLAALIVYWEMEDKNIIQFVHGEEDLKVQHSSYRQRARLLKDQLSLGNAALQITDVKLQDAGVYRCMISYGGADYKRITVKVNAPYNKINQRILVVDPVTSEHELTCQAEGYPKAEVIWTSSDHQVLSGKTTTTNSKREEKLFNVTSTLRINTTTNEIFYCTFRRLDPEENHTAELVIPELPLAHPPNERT
T1 sequence (H9Z833 19-239 limits assumed): as the sequence (Q9NZQ7 19-239 limits assumed) above, with A33T, A34S, S62N, R68Q, Q82R, F173L, T185A, T192I, H215L counted along it
T3 sequence (Q9NZQ7 19-239 limits assumed): as the sequence (Q9NZQ7 19-239 limits assumed) above

As usually defined, the Kd is a measure of binding affinity in units of concentration. High values mean weaker binding, low ones tighter binding. Usually IC50 stands for the concentration that gives 50% inhibition. As for “Z13178: PD-L1 binding Z variant, 58 amino acid residues, SEQ ID NO:2; tested as ABD fusion or His6-tagged (VDAKYAKERTWAVWEIMDLPNLTAGQRGAFINKLHDDPSQSSELLSEAKKLNDSQAPK; Engineered PD-L1 binding polypeptide)”, in series [1], the “Tm (° C.)” value worked out at 52 °C. Further, the “binding to RhPD-L1 in Biacore” value in the series with RhPD-L1 is “showed binding”. In addition, in the series with RhPD-L1 (setting [2]), the Kd came to 22 nM, the “ka (1/Ms) RhPD-L1” value is 110000 M⁻¹ s⁻¹ and the “kd (1/s) RhPD-L1” value stood at 0.0025 s⁻¹. In the series with hPD-L1, the Kd came out at 540 nM, the “ka (1/Ms) hPD-L1” value is 19 M⁻¹ s⁻¹ and the “kd (1/s) hPD-L1” value came out at 1e-05 s⁻¹. For the same substance, the IC50 in the series with hPD-L1 binding to hPD-1 was roughly 1e-08 M.
